# According to PMC12136788:
# The list shows a part of the results.
# T1: UNK ZnF1-6 (called full-length) (human, UniProt Q9C0B0 30-357)
# T1 sequence: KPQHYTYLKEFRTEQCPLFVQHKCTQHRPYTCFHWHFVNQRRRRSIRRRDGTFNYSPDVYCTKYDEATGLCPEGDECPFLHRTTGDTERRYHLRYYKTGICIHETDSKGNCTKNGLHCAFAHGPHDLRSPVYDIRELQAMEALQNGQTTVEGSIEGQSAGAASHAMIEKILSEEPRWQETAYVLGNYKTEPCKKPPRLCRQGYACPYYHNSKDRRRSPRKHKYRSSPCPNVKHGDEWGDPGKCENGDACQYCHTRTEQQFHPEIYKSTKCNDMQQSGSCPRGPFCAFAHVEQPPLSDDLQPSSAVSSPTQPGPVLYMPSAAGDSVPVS
# B1: chr10:15076986:15077088:-|3pUTR|ENSG00000176244|unk|FALSE|unique (ssRNA)
# RNA: GGGAGUUCUACAGUCCGACGAUCUUUUCCUUUAAGAAGAUACCCAGUAGUGGGAUUGCUGGGUAGAAUGGUAGUUCUAUUUUUAGUUCCAUGAGAAAUUUCCGUGCUGUUUUUCAUAGAGGUUGUACUAAUUUACAUUCCCACCAACAGAGGAUUGAGCAUCA
# B2: chr3:121431430:121432303:-|three_prime_utr|ENSG00000051341|control|control|control (ssRNA)
# RNA: GGGAGUUCUACAGUCCGACGAUCUGGAAAGAACAGAGAUUACCCUUUCACCUACCUCAGCAAAACAAACUUUCAAGUCUUGAUAGACUUAGCCUAGUAAUUUUAUAGUGAGAGUUUCAAACUAUAUAUCAGUGUCUAUAGCAUCAACAGAGGAUUGAGCAUCA
# B3: chr6:142752714:142752806:-|3pUTR|ENSG00000010818|msi1_unk|FALSE|overlapping (ssRNA)
# RNA: GGGAGUUCUACAGUCCGACGAUCUUUUCUUUACUUUGCUUAUAUUCUUAUAAGCAUUUUUUAGCAGUAAUUUGUACAUAUUUUAGAAUUUGUGUAUCUGCUUUGUAAUAAAUGUAAUUUCUUUCCUUUUUUGGACACUUGGAUCAACAGAGGAUUGAGCAUCA
# B4: chr1:165890246:165890361:+|CDS|ENSG00000143179|unk|FALSE|unique (ssRNA)
# RNA: GGGAGUUCUACAGUCCGACGAUCCUCCUGGGGCAGAAUGAGGUGGACUAUCGCCAGAAGCAGGUGGUCAUCCUGAGCCAGGAUAGCUUCUACCGUGUCCUUACCUCGGAGCAGAAGGCCAAAGCCCUGAAGGGCCAGUUCAACCAACAGAGGAUUGAGCAUCA
# B5: ENSG00000070961:be:win_3901|3pUTR|ENSG00000070961|bound_else_gene|NA|bound_elsewhere_windowed (ssRNA)
# RNA: GGGAGUUCUACAGUCCGACGAUCAAGUGACCUGUGGAUCAUCAGUAGUACCCAAGCAUGGUCCUGAACAGUGUAUUAGCAGAGCUUUAGUUUAUCUCAGUCCUGGAUGGGAGAGAGAGGGAGGAGUAAAACUGGGCAAGACAACAACAGAGGAUUGAGCAUCA
# B6: chr17:69546800:69546959:+|3pUTR|ENSG00000108984|unk|FALSE|unique (ssRNA)
# RNA: GGGAGUUCUACAGUCCGACGAUCUCAACUUCAUAGGACUUUUUUUUUUUUUAACUUUUCAAAUGGAAGGUGCAGUUUUCAAUUAGGCCUCUGAAAAUUUACAUAGUCAGAUGGAAAAAUGCCAGAGUAAAAUCUAGGAAGAAGCAACAGAGGAUUGAGCAUCA
# B7: chr19:45844017:45844118:-|CDS|ENSG00000125755|msi1|total|mutant (ssRNA)
# RNA: GGGAGUUCUACAGUCCGACGAUCGCCCGCCAGAGACCCAUGUUCAUGUCUGAGGUGAUCCAGGCCUAUGAAACUCUGCAUGGCCGGUCAUUGUCCUCCCCCCUCCCCCUGCCUUCUCUUCACUGGCCAGUCUGCUCUUUCUUUCAACAGAGGAUUGAGCAUCA
# B8: chr10:126015758:126015859:-|3pUTR|ENSG00000148848|msi1|FALSE|unique (ssRNA)
# RNA: GGGAGUUCUACAGUCCGACGAUCAAAUACUCAGAUAAGGUAAAAUGCCAUGAUGCCUCUGUCUUCUGGACUGGUUUUCACAUUAGAAGACAAUUGACAACAGUUACAUAAUUCACUCUGAGUGUUUUAUGAGAAAGCCUUCUUCAACAGAGGAUUGAGCAUCA
# B9: chr11:73394502:73394603:+|CDS|ENSG00000054967|msi1|FALSE|unique (ssRNA)
# RNA: GGGAGUUCUACAGUCCGACGAUCCACCAUCUCCACACCGUGCAGGGCCUGGCCUCGCUCUCUGGCCCCUGCUGCUCCCGCUGUAGCCAGAAGAAGUGGCCCGAGGUGCUGCUGUCCCCUGAGGCUGUAGCCGCCACUACUCCUCAACAGAGGAUUGAGCAUCA
# B10: chr2:128193554:128193655:+|3pUTR|ENSG00000136731|msi1|total|mutant (ssRNA)
# RNA: GGGAGUUCUACAGUCCGACGAUCCCUUGUCAAGGCUCUGCCUGAAUGAGUUUUCAUCUGAUUGUGGGGACCAAGUCCCUGAGCCGAGGGCCAAGAGCCCGGGACAGGGGGAAGAGACUGGCCCAGGUGGCCGGGAGGAAAGAACAACAGAGGAUUGAGCAUCA
# B11: chr5:76733371:76733472:+|CDS|ENSG00000181104|msi1|total|mutant (ssRNA)
# RNA: GGGAGUUCUACAGUCCGACGAUCGAUCCCAGCAGUUAUAACAGCAGUGGGCAGUUGAUGGCAAGUAAAAUGGAUACCUGCUCCCGUAACCUGAAUAACAGCAUAUACAAAAAGCUGUUAACUCCGGAAAAGGGACUGCUGGGACAACAGAGGAUUGAGCAUCA
# B12: chrX:80717640:80717741:-|CDS|ENSG00000165288|msi1|total|mutant (ssRNA)
# RNA: GGGAGUUCUACAGUCCGACGAUCCUGAGAAGUCCAAACAUGGACAUAUCUUCUUCCCCAAACAUCAGGCUUCGAAGACACCGCCGUCAAAUUGAAGGUGUCCGACAAAUGCAUAACAAUGCUCCUCGGAGCCAGAUGGCCACUCAACAGAGGAUUGAGCAUCA
# B13: chr11:69653362:69653473:+|3pUTR|ENSG00000110092|msi1_unk|FALSE|overlapping (ssRNA)
# RNA: GGGAGUUCUACAGUCCGACGAUCACUGCCAUGUACUAGUUUUAGUUUUCUCUUAGAACAUUGUAUUACAGAUGCCUUUUUUGUAGUUUUUUUUUUUUUUAUGUGAUCAAUUUUGACUUAAUGUGAUUACUGCUCUAUUCCAAACAACAGAGGAUUGAGCAUCA
# B14: chr21:14371318:14371404:-|3pUTR|ENSG00000155304|msi1_unk|total|mutant (ssRNA)
# RNA: GGGAGUUCUACAGUCCGACGAUCUAUGAAUAACAAUCUGAAGUCUUUUCAUAAAAAAAAUUAAUAAACUUCCGUUGUACAUUCCGCCAGUGUUAUUUGAAGUAUGUAACUUUUAAAAUAUUAAGUGUCUUGUAUGAUCCGAAUCAACAGAGGAUUGAGCAUCA
# B15: chr6:96891104:96891324:-|CDS|ENSG00000123545|unk|total|mutant (ssRNA)
# RNA: GGGAGUUCUACAGUCCGACGAUCUAAUCAUAAGCUUUUCCCAGAAACCUGGACUGCUGAGAAAAUAAUGCAGGAAUACCAGUCCGAACAGAAAGAUGUGAAUUCUCUUCUUAAAUAUUUUGUUACUUUUGAAGUCGAAAUCUUCAACAGAGGAUUGAGCAUCA
# B16: chr6:105096826:105097152:-|3pUTR|ENSG00000112276|msi1|total|mutant (ssRNA)
# RNA: GGGAGUUCUACAGUCCGACGAUCACUUGCAACCCCGUUUUAAAAUACAUGAGGAUUUUAUGAAAGCUUUAUACAGACAUUUACCGGAAACUCAUUCUUUGAUUUCCGGUGCCAUUUAAAUUGAUAACACUUACUUUAUAAAAACAACAGAGGAUUGAGCAUCA
# B17: chr2:60940222:60942394:-|three_prime_utr|ENSG00000162927|control|control|control (ssRNA)
# RNA: GGGAGUUCUACAGUCCGACGAUCGUAACAUCUCAGGAUCUAUAUAUGUGUAUAUUUUGUGUUAAAUUGUUCCAAGGAUGUCUUAGGAUUUUUCUCAUUCCCUCUUUCACCCCCACAAACCAAACUAUGAAUAAUGAAAUAAUUCAACAGAGGAUUGAGCAUCA
# B18: ENSG00000070961:be:win_3101|CDS|ENSG00000070961|bound_else_gene|NA|bound_elsewhere_windowed (ssRNA)
# RNA: GGGAGUUCUACAGUCCGACGAUCCAGAACUUUCAAUAGAACAGUGGCUAUGGUCAAUAUUCCUAGGAAUGGGAACAUUACUCUGGGGCCAGCUUAUUUCAACAAUUCCAACUAGCCGUUUAAAAUUCCUCAAAGAAGCUGGUCCAACAGAGGAUUGAGCAUCA
# B19: chr17:30248266:30248367:-|3pUTR|ENSG00000108578|msi1|total|mutant (ssRNA)
# RNA: GGGAGUUCUACAGUCCGACGAUCUUGGGUGAGAACAACCAAAAUCUUAUCAUGGUCUCAGUCAUAAUCAUCCGGGGGAACUCCCGCCAAAUGGUUUAACUUCUGCCUGUGGAACUGGGGAUUGGGUGGGCAGGAAAAGGUGAUCAACAGAGGAUUGAGCAUCA
# B20: chr7:7573188:7573293:+|CDS|ENSG00000164654|unk|total|mutant (ssRNA)
# RNA: GGGAGUUCUACAGUCCGACGAUCCCAUAUUUCCACGAUCGUGUUGCUUCCUUCUAUGAAGGUCAGGUUGCAAUAUGGGAUCUCCGAAAAUUUGAGAAGCCAGUUUUGACAUUGACUGAGCAACCAAAACCCUUAACAAAAGUACAACAGAGGAUUGAGCAUCA
# B21: chr3:170465896:170466000:-|3pUTR|ENSG00000013293|unk|FALSE|unique (ssRNA)
# RNA: GGGAGUUCUACAGUCCGACGAUCACUUAGGUAGUUGCAUUCCAUGAGAUCACAUUUCACUUCUGAACCUUAUUCCUUGGGGCUAGCUCACUUUCAGAGGUGUAUUUUUUUUUCCUGUUAUUUCCCAGAGUAGUUUCACUGAAGCAACAGAGGAUUGAGCAUCA
# B22: chr15:56434137:56434395:-|CDS|ENSG00000138587|control|control|control (ssRNA)
# RNA: GGGAGUUCUACAGUCCGACGAUCAGAGGAAGAGGAGAACUUUAGAAAAACUAUGCUAGCUAAAUUUGCUGAGGAUGAUCGAAUAGAAUUAAUGAAUGCUCAGAAACAAAGAAUGAAGCAGCUGGAACACAGGAGGGCUGUGGACAACAGAGGAUUGAGCAUCA
# Molecular target: T1, UNK ZnF1-6 (called full-length)
# Experiment: nsRBNS (natural sequence RNA bind-n-seq); RBNS binding buffer (assumed for nsRBNS): 25 mM Tris pH 7.5, 150 mM KCl, 3 mM MgCl2, 0.01% Triton X-100, 500 ug/ml BSA, 20 U/ml SUPERase-In, 4 C; UNK is unkempt and MSI1 is Musashi-1; names of the RNAs are library labels; protein concentration not given here; high values mean tight binding
row,Binder,binding signal
1,B1,2.35 enrichment R
2,B2,8.5 enrichment R
3,B3,2.11 enrichment R
4,B4,0.748 enrichment R
5,B5,1.72 enrichment R
6,B6,6 enrichment R
7,B7,0.997 enrichment R
8,B8,0.315 enrichment R
9,B9,0.839 enrichment R
10,B10,0.788 enrichment R
11,B11,0.568 enrichment R
12,B12,0.387 enrichment R
13,B13,80.9 enrichment R
14,B14,0.702 enrichment R
15,B15,0.432 enrichment R
16,B16,1.12 enrichment R
17,B17,1.88 enrichment R
18,B18,1.91 enrichment R
19,B19,1.22 enrichment R
20,B20,0.291 enrichment R
21,B21,2.34 enrichment R
22,B22,6.88 enrichment R
